Data reported in PubChem BioAssay (NCI).
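All cell lines were grown in 96-well plates and treated with compound for 48 hours. GI50 = concentration required for 50% inhibition of growth. Definition used: TGI = concentration required for complete inhibition of growth.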 Peptide text beside a SMILES is read from it.

Test system: NCI-H322M lung
Assay: NCI anticancer screen, dose series, 48 h

Row | SMILES | GI50 [µM] | TGI [µM]
1 | COc1ccc2c(C3=C(c4cn(C)c5ccccc45)C(=O)NC3=O)coc2c1 | 1.73 | 61.3
2 | CC[C@@](C)(NC(=O)C(C)(C)NC(=O)[C@@H](NC(=O)[C@@H]1CCCN1C(=O)C(C)(C)NC(=O)[C@H](CC(C)C)NC(=O)CNC(=O)C(C)(C)NC(=O)[C@@H](NC(=O)C(C)(C)NC(=O)[C@H](CCC(N)=O)NC(=O)[C@H](C)NC(=O)C(C)(C)NC(=O)[C@H](C)NC(=O)C(C)(C)NC(=O)[C@@H]1CCCN1C(=O)C(C)(C)NC(C)=O)C(C)C)C(C)C)C(=O)N[C@@H](CCC(N)=O)C(=O)N[C@@H](CCC(N)=O)C(=O)N[C@H](CO)Cc1ccccc1 (HELM PEPTIDE1{[ac].[Aib].P.[Aib].A.[Aib].A.Q.[Aib].V.[Aib].G.L.[Aib].P.V.[Aib].[CC[C@@](C)(N[*:1])C(=O)[*:2]].Q.Q.[OC[C@H](Cc1ccccc1)N[*:1]]}$$$$V2.0) | 3.21 | > 4.25
